Laboratory results reported in PubChem BioAssay (Tox21).
Inconclusive means that the source gave no clear call. Such entries were picked first, then a sample of the others. A potency beside an inconclusive call is a rough fit, not a confirmed value. Active and inactive are the calls of the source. Calls come from the whole dose curve; as a rule, active = well fitted curve in the direction sought with a large enough effect in the repeat runs; inconclusive = weak or mixed curves; inactive = no such curve, though single readings can be large; an effect the other way counts as inactive or inconclusive.

Biological target: Estrogen receptor (Homo sapiens) (UniProt P03372)
Experiment: qHTS assay to identify small molecule antagonists of the estrogen receptor alpha (ER-alpha) signaling pathway using the BG1 cell line in the presence of 0.1 nM 17-beta-estradiol (AID 1259244); note: nearly all actives have a fitted effect of over 50% in size
Conditions: VM7Luc4E2 (BG1) ERE-luciferase, antagonist mode, 0.1 nM E2, 22 h; series mostly up to 92.4 µM
Method in brief: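 Estradiol at 0.1 nM (final) stimulates the endogenous ER-alpha of VM7Luc4E2 cells carrying an ERE-driven luciferase; compounds are co-incubated 22 h at 37C and luciferase output quantified by luminescence.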
% is set by controls: 0 for no effect and ±100 for the full control effect; potency is the fitted concentration of half-maximal effect; tags give direction and shape of the fitted curve.

UniProt P03372, sequence (P03372 whole entry, looked up): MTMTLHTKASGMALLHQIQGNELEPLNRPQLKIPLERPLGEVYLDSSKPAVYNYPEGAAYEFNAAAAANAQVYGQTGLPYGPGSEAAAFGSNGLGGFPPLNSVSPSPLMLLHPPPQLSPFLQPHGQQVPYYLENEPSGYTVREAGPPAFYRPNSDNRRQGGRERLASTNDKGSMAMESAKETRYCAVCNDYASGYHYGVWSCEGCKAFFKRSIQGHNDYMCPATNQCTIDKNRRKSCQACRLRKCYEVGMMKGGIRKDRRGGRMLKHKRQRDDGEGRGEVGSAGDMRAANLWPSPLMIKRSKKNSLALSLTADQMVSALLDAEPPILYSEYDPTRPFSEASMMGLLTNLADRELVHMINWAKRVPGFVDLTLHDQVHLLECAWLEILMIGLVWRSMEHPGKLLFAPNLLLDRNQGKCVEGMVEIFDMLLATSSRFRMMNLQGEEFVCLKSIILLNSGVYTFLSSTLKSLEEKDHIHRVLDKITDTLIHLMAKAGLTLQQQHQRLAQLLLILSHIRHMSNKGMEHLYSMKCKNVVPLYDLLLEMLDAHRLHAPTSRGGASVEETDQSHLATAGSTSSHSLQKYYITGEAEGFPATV

SMILES	Potency	activity change, negative = inhibition
C/C(=C\c1ccc(C(=O)O)cc1)c1ccc2c(c1)C(C)(C)CCC2(C)C	inconclusive: 0.0021 µM [inhibitor, full curve]	–
CC/C=C\CCOC(C)OCC (stereo not drawn)	inactive	–
O=[N+]([O-])c1ccc(/C=N\O)o1	inconclusive: 33.5 µM [inhibitor, single point]	–
CC[C@H](NC(C)C)[C@H](O)c1ccc(O)c2[nH]c(=O)ccc12	inactive	–
CC(=O)OC1CCCCC1	inactive	–
CC(=O)/C=C/C1C(C)=CCCC1(C)C (stereo not drawn)	inactive	–
O=C1CCCC1	inactive	–
N#CCCOCCC#N	inconclusive: 68.6 µM [inhibitor, single point]	–
O=C(O)c1ccc2c(c1)nc(C(=O)NC1CCN(C3CC3)CC1)n2Cc1cc(-c2ccc(Cl)s2)on1	–	inactive: -4.46% [at 19 µM]
C[C@H](N)C(=O)N[C@@H](C)C(=O)NC1[C@H]2CN(c3nc4c(cc3F)c(=O)c(C(=O)O)cn4-c3ccc(F)cc3F)C[C@@H]12 (stereo partly drawn)	inconclusive: 10.6 µM [inhibitor, partial curve]	–
F[Si-2](F)(F)(F)(F)F	inactive	–
NCC1CCC(C(=O)Oc2ccc(CCC(=O)O)cc2)CC1 (stereo not drawn)	inconclusive: 29.8 µM [inhibitor, partial curve]	–
C=C[Si](C)(C)Cl	inconclusive: 4.21 µM [inhibitor, single point]	–
Nc1ccc(C(=O)OCCCOC(=O)c2ccc(N)cc2)cc1	inconclusive: 68.6 µM [inhibitor]	–
O=C(Nc1ccccc1)c1cc([N+](=O)[O-])ccc1Cl	inactive	–
CCCOCCOCCO	inactive	–
COCCC(=O)OC	inconclusive: 68.6 µM [inhibitor, single point]	–

Tested on: not listed separately
Experiment: qHTS assay to identify small molecule agonists of the sonic hedgehog signaling (Shh) pathway - cell viability counter screen (AID 1259366); note: nearly all actives have a fitted effect of over 50% in size
Conditions: NIH/3T3 Gli1-Luc viability, CellTiter-Fluor, 24 h; series mostly up to 92.4 µM
Method in brief: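 In quantitative high-throughput format, 3T3 Gli1-Luc cells were exposed to compounds for 24hr and multiplexed for viability using CellTiter-Fluor, incubated 1hr at 37C before the fluorescence read.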

SMILES	Potency
O=C(c1ccccc1)c1ccc(Cl)cc1	inconclusive: 54.5 µM [cytotoxic, partial curve]
COCCC(=O)OC	inconclusive: 77 µM [cytotoxic, single point]
CCCCCCOC(=O)CCCCCCCC(=O)OCCCCCC	inactive
CCCCC(CC)CO (stereo not drawn)	inactive

Tested on: not listed separately
Experiment: qHTS assay to identify small molecule antagonists of the sonic hedgehog signaling (Shh) pathway - cell viability counter screen (AID 1259367); note: nearly all actives have a fitted effect of over 55% in size
Conditions: NIH/3T3 Gli1-Luc viability, CellTiter-Fluor, 24 h; series mostly up to 92.4 µM
Method in brief: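 NIH/3T3-derived Gli1-Luc reporter cells (2,000 per well) rested 4 hr at 37 C, then received DMSO compounds plus conditioned medium. After 23 hr of treatment, CellTiter-Fluor was added for 1 hr at 37C and fluorescence read.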

SMILES	Potency
O=C(c1ccccc1)c1ccc(Cl)cc1	inconclusive: 68.6 µM [cytotoxic, single point]
CC(=O)Nc1ccc(N=Nc2cc(C)ccc2O)cc1	inconclusive: 30.6 µM [cytotoxic, partial curve]
C=COCCOCCOCCOC=C	inactive
Cc1ccc(-c2ccccc2C#N)cc1	inactive
O=[N+]([O-])c1ccc(NCCO)c(OCCO)c1	active: 30.7 µM
O=C(c1ccc(O)cc1)c1ccc(O)cc1	inconclusive: 27.3 µM [cytotoxic, full curve]
COCCC(=O)OC	inconclusive: 68.6 µM [cytotoxic, single point]
